Reference: PMC11053136 (Nature Communications, 2024)

Columns and labels:
[1] = hemolysis assay buffer

Which “Stability in DMSO” value does the source give for `COc1ccc(C=C2C(=O)NC(=O)NC2=O)cc1COc1ccc(F)cc1F` [PB-1] here?
Its value is “entirely stable”.

What about the “Solubility in assay buffer (qualitative)” value [1] of the same compound?
Its value is “without precipitation”.
